Source: the supplement of paper PMC4967469

Assays:
Assay in all cases: Viability of human cancer cell lines after 72 h of drug (GDSC screen)
LFM-A13 = compound: C/C(O)=C(\C#N)C(=O)Nc1cc(Br)ccc1Br [LFM-A13]; conditions: top dose 16 µM; top dose inferred
Description: (§1)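 Human cancer cell lines in 384-well plates, medium with 10% serum, drug for 72 h over a 256-fold dose range (nine 2-fold or five 4-fold steps up to the top dose). Adherent lines were fixed and stained with the nucleic acid dye Syto60, suspension lines read with resazurin; signal relative to control wells, capped at 0 and 100%. One two-parameter sigmoid per drug and line, fitted in a mixed model over all curves with the slope shared within a line.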

TW-37 = compound: CC(C)c1ccccc1Cc1cc(C(=O)Nc2ccc(S(=O)(=O)c3ccccc3C(C)(C)C)cc2)c(O)c(O)c1O [TW-37]; conditions: top dose 5 µM
Description: as §1

Bicalutamide = compound: CC(O)(CS(=O)(=O)c1ccc(F)cc1)C(=O)Nc1ccc(C#N)c(C(F)(F)F)c1 [Bicalutamide]; conditions: top dose inferred
Description: as §1

AUY922 = compound: CCNC(=O)c1noc(-c2cc(C(C)C)c(O)cc2O)c1-c1ccc(CN2CCOCC2)cc1 [AUY922]; conditions: top dose 0.256 µM; top dose inferred
Description: as §1

KIN001-270 = compound: Cc1ccc(Nc2cc(-c3cccc(N4C(=O)c5ccccc5C4=O)c3)ncn2)cc1NS(C)(=O)=O [KIN001-270]; conditions: top dose 20 µM; top dose inferred
Description: as §1

Nilotinib = compound: Cc1cn(-c2cc(NC(=O)c3ccc(C)c(Nc4nccc(-c5cccnc5)n4)c3)cc(C(F)(F)F)c2)cn1 [Nilotinib]; conditions: top dose 2 µM
Description: as §1

Gemcitabine = compound: Nc1ccn([C@@H]2O[C@H](CO)[C@@H](O)C2(F)F)c(=O)n1 [Gemcitabine]; conditions: top dose 1.024 µM
Description: as §1

T0901317 = compound: O=S(=O)(c1ccccc1)N(CC(F)(F)F)c1ccc(C(O)(C(F)(F)F)C(F)(F)F)cc1 [T0901317]; conditions: top dose 10.24 µM; top dose inferred
Description: as §1

MP470 = compound: S=C(NCc1ccc2c(c1)OCO2)N1CCN(c2ncnc3c2oc2ccccc23)CC1 [MP470]; conditions: top dose 20 µM; top dose inferred
Description: as §1

[1] = top dose 1.024 µM, screen: GDSC drug entry 150
[2] = top dose 10 µM, screen: GDSC drug entry 1502

Cell Line | AUC (LFM-A13) | pIC50 (LFM-A13) | AUC (TW-37) | pIC50 (TW-37) | AUC (Bicalutamide; [1]) | pIC50 (Bicalutamide; [1]) | AUC (AUY922) | pIC50 (AUY922) | AUC (KIN001-270) | pIC50 (KIN001-270) | AUC (Nilotinib) | pIC50 (Nilotinib) | AUC (Gemcitabine) | pIC50 (Gemcitabine) | AUC (T0901317) | pIC50 (T0901317) | AUC (MP470) | pIC50 (MP470) | AUC (Bicalutamide; [2]) | pIC50 (Bicalutamide; [2])
NCI-H2052 (mesothelioma, adherent) | 0.973 | < 4.80 | 0.694 | 5.89 | 0.98 | < 5.99 | 0.67 | 7.26 | 0.981 | < 4.70 | 0.982 | < 5.70 | 0.633 | 6.78 | 0.973 | < 4.99 | 0.981 | < 4.70 |  | 
NCI-H2087 (lung adenocarcinoma, semi-adherent) | 0.965 | < 4.80 | 0.576 | 6.29 | 0.969 | < 5.99 | 0.58 | 7.57 | 0.975 | < 4.70 | 0.983 | < 5.70 | 0.167 | 8.25 | 0.975 | < 4.99 | 0.923 | < 4.70 | 0.962 | < 5.00
NCI-H2110 (non-small cell lung carcinoma, adherent) | 0.979 | < 4.80 | 0.761 | 5.74 | 0.986 | < 5.99 | 0.592 | 7.54 | 0.986 | < 4.70 | 0.986 | < 5.70 | 0.105 | > 8.40 | 0.985 | < 4.99 | 0.958 | < 4.70 | 0.984 | < 5.00
NCI-H2122 (lung adenocarcinoma, adherent) | 0.966 | < 4.80 | 0.66 | 6.07 | 0.978 | < 5.99 | 0.431 | 7.98 | 0.988 | < 4.70 | 0.985 | < 5.70 | 0.072 | > 8.40 | 0.985 | < 4.99 | 0.986 | < 4.70 | 0.97 | < 5.00
NCI-H2172 (non-small cell lung carcinoma, adherent) | 0.962 | < 4.80 | 0.579 | 6.26 | 0.983 | < 5.99 | 0.884 | < 6.59 | 0.942 | < 4.70 | 0.976 | < 5.70 | 0.909 | < 5.99 | 0.981 | < 4.99 | 0.918 | < 4.70 | 0.976 | < 5.00
NCI-H2227 (small cell lung carcinoma, semi-adherent) | 0.986 | < 4.80 | 0.653 | 6.06 | 0.985 | < 5.99 | 0.895 | < 6.59 | 0.98 | < 4.70 | 0.986 | < 5.70 | 0.97 | < 5.99 | 0.986 | < 4.99 | 0.94 | < 4.70 | 0.98 | < 5.00
NCI-H2291 (lung adenocarcinoma, adherent) | 0.983 | < 4.80 | 0.906 | < 5.30 | 0.982 | < 5.99 | 0.984 | < 6.59 | 0.965 | < 4.70 | 0.983 | < 5.70 | 0.983 | < 5.99 | 0.98 | < 4.99 | 0.977 | < 4.70 | 0.973 | < 5.00
NCI-H2347 (lung adenocarcinoma, adherent) | 0.979 | < 4.80 | 0.707 | 5.86 | 0.974 | < 5.99 | 0.693 | 7.20 | 0.981 | < 4.70 | 0.983 | < 5.70 | 0.767 | 6.34 | 0.983 | < 4.99 | 0.969 | < 4.70 | 0.98 | < 5.00
NCI-H2444 (non-small cell lung carcinoma, adherent) | 0.987 | < 4.80 | 0.829 | 5.43 | 0.988 | < 5.99 | 0.988 | < 6.59 | 0.988 | < 4.70 | 0.983 | < 5.70 | 0.988 | < 5.99 | 0.986 | < 4.99 | 0.933 | < 4.70 | 0.981 | < 5.00
NCI-H2452 (mesothelioma, adherent) | 0.976 | < 4.80 | 0.644 | 6.07 | 0.984 | < 5.99 | 0.981 | < 6.59 | 0.982 | < 4.70 | 0.984 | < 5.70 | 0.934 | < 5.99 | 0.984 | < 4.99 | 0.922 | < 4.70 | 0.857 | < 5.00
NUGC-4 (stomach, adherent) | 0.986 | < 4.80 | 0.768 | 5.73 | 0.988 | < 5.99 | 0.633 | 7.43 | 0.956 | < 4.70 | 0.988 | < 5.70 | 0.613 | 6.88 | 0.984 | < 4.99 | 0.963 | < 4.70 | 0.986 | < 5.00
NY (osteosarcoma, adherent) | 0.971 | < 4.80 | 0.436 | 6.68 | 0.989 | < 5.99 | 0.556 | 7.64 | 0.987 | < 4.70 | 0.985 | < 5.70 | 0.414 | 7.43 | 0.989 | < 4.99 | 0.985 | < 4.70 | 0.97 | < 5.00
OCUM-1 (stomach, adherent) | 0.982 | < 4.80 | 0.56 | 6.33 | 0.977 | < 5.99 | 0.736 | 7.08 | 0.983 | < 4.70 | 0.987 | < 5.70 | 0.385 | 7.53 | 0.968 | < 4.99 | 0.865 | < 4.70 | 0.984 | < 5.00

pIC50: −log10 of the molar value. The IC50 comes from the fitted curve, where viability falls to half of the control; where the fit passes the top or lowest dose, that dose stands as a limit. For AUC the same curve is integrated over the 256-fold range of doses and scaled to a fraction: 1 means no effect, lower means more sensitive. For part of these data: A top dose marked as inferred comes from the curve model; the source does not state it. For part of these data: Drugs with an entry number were screened twice under separate entries, and the two screens often disagree.
